# Experimental data reported in the RNAGym collection of RNA variant scans (doi:10.7554/elife.90254).
# The source gives no read counts; variants with many changes may rest on few reads.
# B1: LINE1-full (parent)
# chain: UACGUAGGUGGUUUUCCCCUGAUAGUGCUAAGGGGGCCUGGAAGUUUGGACUGGGCAGAGCUCAACACAGCGUGGCAAAGUGGCUGUGGCUAGACUGCCUCUCUGGAUUCCUCGUCACUCAGCAGGGCAUCUCUGAGAGAAAUGCC
# Variants of: B1
# Assay: self-cleavage, relative activity (ratio to wild type); higher = more cleavage; in vitro, sequencing; the parent is a self-cleaving ribozyme
row,Variant,self-cleavage
1,A30G A59U A79G U132A,0
2,U108A C123U A138C,1.32
3,G32C U39C G137A A140U,1.34
4,U12C C37U A42G A50G,0.82
5,A59G A129G A136U,0.08
6,A31G A42G A69G U130A A142G,0
7,G58A U91C A129G,0.04
8,U13A G27A U39A U134C,1.7
9,A42G A57U U91C A129G,0.18
10,A42G A59G C146U,0.18
11,G21U C76A A107G A141G U143A,1.89
12,A79G U108C C113A U134C,1.79
13,U12C U62C A94G,0
14,C3A G25A U134C,0.77
15,C18U G74A U119C,1.35
16,A77U G97A U143C,0.05
17,U5A U14A A79G,2.63
18,C71U U102C A141G,0.5
19,U20G A77U G93A U104C,0.07
20,A6U G126A A136G,1.71
21,G49U U85C A136U,0.13

row,Variant,self-cleavage
1,U13C A59U A64C U81A A124C C145U,0.69
2,U9C U45C A57U,0.32
3,A42U A117U A124G U132C,1.58
4,U12C A129G U132C,1.43
5,U15A U45C A69U U96C A121U G125U A136U,0
6,A64U C76U A121U A136G U143A,1.17
7,U13A U20C G27U U47C A79G U108A,0
8,C51A A64U A94G G106A,0.1
9,C28G A43G G44A A50U,0.84
10,A43G A64G U134C,0.73
11,U14A A24U A57U C84U C123A,0.04
12,U9G G83C A117U,0.8
13,C3A U47C U62A A77G,0.38
14,U13C A42U U45G,0.39
15,A69G U100A A117G A141G,0
16,U23C A30G U85C,0.97
17,A64G G74A U130C,0.5
18,U5C A94G U100C,0.84
19,A65G C71U U100A,0.04
20,A22G U119C U130C,0.92
21,G40A G72A U115A U134C,0.87

row,Variant,self-cleavage
1,U5C U108C A140G,1.4
2,U23C A42G U85C A142G,0.73
3,U29A A57G A77G,0.38
4,A30U U46A U87C U108C U130C A136U,0
5,G21A A30G U100A A140G,0.63
6,U15C U87C U119C,0.61
7,G36A A42G U62C,0.05
8,U5C U13G U39C U81A U108G A124G,0.61
9,U15C G72C U85C,0.32
10,U13C U73C G82A,2.16
11,C3G A64G A136G,0.35
12,U1C U96C A121U A141G,0.08
13,U26C U46C A136U A141G,1.02
14,U87C U112C C116A A121C,0.18
15,U12C U15A A77U U87A U96A C116U G126C,0.04
16,C16G A138G U143C,1.33
17,U29C G55A G93A A142G U143C,0.04
18,U12C A107G A124U,1.21
19,U52C A64U A77U A136G,0.17
20,U47C U115G A141G,1.96
21,G72A U112C U119A,1.05

row,Variant,self-cleavage
1,A24G A57U A78G U108A,0.28
2,U1C U12C U39C A69U A142G,0.12
3,U96C U102C C123U A136G,0.06
4,U1C A6U U12C U23A,1.25
5,G82A A107G U132A,1.47
6,U62C A124G A141G,0.11
7,U46C C76U A77G U132C A138G,2.55
8,U23A G36A A43G G137U,0.44
9,U45G U62G A64G,0
10,G89A A121U A124G A129G,0.03
11,A57G A78G A121C,0.19
12,U26C U46C U91C A129U,1.02
13,A2G G25C A94G A107G C116U,0.77
14,U45C G58U A69G G72A G126A,0.04
15,U13A G40U U100C,1.22
16,U52A U96C U134A,0.11
17,U13C A69U U104A A142G,0.11
18,U20C U23C A79G U104A,1.23
19,U1C A24U A141G,0.74
20,A65G A124G U130C,0
